Data reported in PubChem BioAssay AID1345082 (National Center for Advancing Translational Sciences (NCATS), 2018).
The campaign covered roughly 94,000 compounds. About 4,000 (4.3%) were called active. The inconclusive results got no clear call from the source; some entries with a clear call stand among them for comparison. Calls follow the shape of the dose curve; as a rule, active = well fitted inhibition curve with a large enough effect; inconclusive = small, poorly fitted or top-dose-only effect; inactive = no such curve, though single readings can be large or run the other way. Potencies beside an inconclusive call are fits to weak or partial responses and may not hold up.
% is scaled to controls: 0 for no effect and ±100 for the full control effect; potency is read from the fitted curve at half-maximal effect; tags tell the direction and shape of the fitted curve.

Experiment: Cytotoxic Profiling in NIH 3T3 Cell Line of Diverse Libraries Using Quantitative High-Throughput Screening; also: nearly all actives have a fitted effect of over 55% in size
Conditions: NIH 3T3 viability, CellTiter-Glo ATP luminescence, 48-72 h; activity change, negative = cytotoxicity: at 96.7 µM (top of the series) unless noted; series mostly up to 96.7 µM
Method in brief: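 Mouse fibroblast NIH 3T3 cells, 400 per well, received compound via pintool and were incubated for 48 or 72 hr prior to CellTiter-Glo ATP luminescence measurement.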
In the case of O=C(c1cc(F)cc(Cl)c1)N1CCc2nc(-c3cccc(F)c3)[nH]c2C1, the Potency is reported as inconclusive: 50.1 µM [inhibitor, partial curve, poor fit]. In the case of CC(C)Oc1cccc(-c2n[nH]c3c2CC(=O)N(Cc2ccccn2)C3)c1, the Potency is reported as inconclusive: 56.2 µM [inhibitor, partial curve, poor fit]. In the case of CCOc1ccccc1NC(=O)N1CCC(N2C(=O)C(OC)C23CCOCC3)CC1 (stereo not given), the “activity change, negative = cytotoxicity” value is reported as inactive: 4.99%. In the case of O=C(COc1ccc2nncn2n1)N1CCOCC(O)(CN2CCCC2)C1 (stereo not given), the “activity change, negative = cytotoxicity” value is reported as inactive: -18.6%. With Cc1ccc(C(=O)N2CCC3(CC2)CC(Cc2ccccc2)CCO3)s1 (stereo not given) the Potency was inconclusive: 44.7 µM [inhibitor, partial curve, poor fit]. With CC(=O)NC1CCN(Cc2cn(-c3ccccc3F)nc2-c2cc(C)sc2C)C1 (stereo not given) the Potency was inconclusive: 89.1 µM [inhibitor, single point]. In the case of Cc1ccc(CNC(=O)c2ccc(-c3ccc(N4CCSCC4)nc3)cc2)o1, the Potency is reported as inconclusive: 44.7 µM [inhibitor, partial curve, poor fit]. For O=C(Nc1ccc2c(N3CCCCC3)ncnc2c1)c1ccccc1C(F)(F)F, the Potency was inconclusive: 3.98 µM [inhibitor, full curve, poor fit]. For c1ccc(-c2cc3c(cn2)CN(Cc2ccc4[nH]ccc4c2)CCN3)cc1, the Potency was active: 25.1 µM. With O=C(Nc1cccc2ccccc12)O[C@@H]1CO[C@H]2[C@@H]1OC[C@@H]2Nc1nccc(-c2cccc(F)c2)n1 the Potency was inconclusive: 39.8 µM [inhibitor, full curve, poor fit]. With Cc1cc(-c2cc(-c3ccc(F)cc3)nc3c(C)noc23)ccn1 the Potency was inconclusive: 56.2 µM [inhibitor, partial curve, poor fit]. With O=C(NC[C@H]1O[C@@H](CO)[C@@H](O)[C@H]1N1CCN(c2cccc(C(F)(F)F)c2)CC1)c1ccccc1 the Potency was inconclusive: 56.2 µM [inhibitor, partial curve, poor fit]. In the case of COc1ccc(-c2nc3cc(C)ccc3cc2CN2CCCC(C#N)C2)cc1OC (stereo not given), the Potency is reported as inconclusive: 50.1 µM [inhibitor, partial curve, poor fit]. For O=C(NC1CCCN(c2cc(-c3ccc(F)cc3)[nH]n2)C1)c1ccc2cc[nH]c2c1 (stereo not given), the Potency was active: 35.5 µM. In the case of CSCCNC(=O)C1CCCN1c1nccc(Nc2ccccc2F)n1 (stereo not given), the Potency is reported as inconclusive: 44.7 µM [inhibitor, partial curve, poor fit]. With CS(=O)(=O)N1CCC2(CC1)CC(=O)N(CCCc1ccccc1)C2 the “activity change, negative = cytotoxicity” value was inactive: 4.95%. With O=C1CC(c2ccccc2)N(C(=O)C2CC2)CCCN(C(=O)NCCc2ccccc2)CCN1 (stereo not given) the “activity change, negative = cytotoxicity” value was inactive: -10.7%. For COC1C(=O)N(c2cccc(F)c2)C12CCN(Cc1ccc(F)cc1F)CC2 (stereo not given), the Potency was inconclusive: 44.7 µM [inhibitor, partial curve, poor fit]. For CCOC(=O)C1CCN(C(=O)c2cc(-c3cc(Cl)cc(Cl)c3)c3nncn3n2)CC1, the “activity change, negative = cytotoxicity” value was inactive: -4.88%. In the case of CN(Cc1ccccc1C(F)(F)F)C(=O)Cc1ccccn1, the “activity change, negative = cytotoxicity” value is reported as inactive: -11.4% [at 138 µM]. With COC(=O)N1CCCN(c2nccc(Nc3ccc(C)cc3)n2)C1 the Potency was active: 35.5 µM. With O=C(NCC(F)(F)F)c1nc2sccn2c1-c1cccnc1 the Potency was inconclusive: 79.4 µM [inhibitor, partial curve, poor fit]. In the case of O=C1NCCCCCCN(Cc2ccncc2)[C@@H]2CN(C(=O)Nc3ccc4c(c3)OCCO4)CC[C@H]12, the Potency is reported as inconclusive: 20 µM [inhibitor, full curve]. With COCCNC(=O)[C@@H](C)C1CC[C@@]2(C)CC[C@H](NC(=O)COc3ccccc3)[C@@H](C)[C@@H]2[C@H]1O (stereo not given in full) the “activity change, negative = cytotoxicity” value was inactive: -18.1%. For O=c1ccc(CN2CCN(c3ccccc3F)CC2)cn1CC1CC1, the Potency was inconclusive: 20 µM [inhibitor, partial curve, poor fit]. With C[C@H](C(=O)NCCN1CCOCC1)C1CC[C@@]2(C)Cc3sc(CSc4ccccc4)nc3[C@@H](C)[C@@H]2[C@H]1O (stereo not given in full) the Potency was inconclusive: 50.1 µM [inhibitor, partial curve, poor fit]. In the case of O=C(NCc1ccccn1)c1ccc2nnc(-c3ccc(OC(F)(F)F)cc3)n2c1, the “activity change, negative = cytotoxicity” value is reported as inactive: -22.4%. With O=C(NCc1nnc2ccc(-c3ccc(Cl)cc3)nn12)c1cccc(Cl)c1 the Potency was inconclusive: 25.1 µM [inhibitor, full curve]. In the case of CCOc1ccc(CC(=O)N2CCC(n3cc(-c4nc(-c5ccccc5)no4)nn3)C2)cc1 (stereo not given), the Potency is reported as inconclusive: 22.4 µM [inhibitor, full curve]. For CCOCC1(C)COc2ccc(C(=O)Nc3cccc(OC)c3)cc2N1 (stereo not given), the “activity change, negative = cytotoxicity” value was inactive: -30% [at 138 µM]. With O=C1COCC2(CN1Cc1cccc(OC(F)(F)F)c1)CN(c1ccccn1)C2 the “activity change, negative = cytotoxicity” value was inactive: -16% [at 138 µM]. In the case of Cc1cnc(C2CC2)n1C1CCN(S(=O)(=O)c2ccc3c(c2)OCCO3)CC1, the Potency is reported as inconclusive: 12.6 µM [inhibitor, full curve]. In the case of Cn1nc(-c2ccncc2)cc1NC(=O)c1ccccc1F, the Potency is reported as inconclusive: 39.8 µM [inhibitor, full curve]. In the case of O=C(CCc1ccccc1)N1CCNc2cnc(Nc3cccc(C(F)(F)F)c3)nc2C1, the Potency is reported as inconclusive: 44.7 µM [inhibitor, partial curve, poor fit]. For COCCN1C(=O)c2ccccc2C(C(=O)NCc2ccc(Cl)cc2)C12CCCCC2 (stereo not given), the Potency was inconclusive: 50.1 µM [inhibitor, partial curve, poor fit]. With O=C1Nc2ccccc2CC12CCN2[S+](=O)([O-])c1ccccc1 (stereo not given) the “activity change, negative = cytotoxicity” value was inactive: -6.17% [at 138 µM]. For CC(C)C[C@@H]1N[C@H](C(=O)O)Cc2cn(CC3CCC3)c3cccc1c23, the Potency was active: 79.4 µM. For Clc1ccc(-c2cc3c(cn2)CN(Cc2ccncc2)CCN3)cc1, the Potency was inconclusive: 63.1 µM [inhibitor, partial curve, poor fit]. With COc1ccccc1C(=O)NC1CCN(Cc2ccc(-c3ccccc3OC)cc2)C1 (stereo not given) the Potency was inconclusive: 50.1 µM [inhibitor, partial curve, poor fit]. With Cc1cccc(C(=O)N2CCC3(CC2)CC(c2ccccc2)CN(C)C3)n1 (stereo not given) the Potency was inconclusive: 44.7 µM [inhibitor, partial curve, poor fit].
